Data reported in PubChem BioAssay AID2675 (National Center for Advancing Translational Sciences (NCATS), 2010).
In all, about 280,000 compounds went through this assay and about 100 (0.036%) were called active. Inconclusive results, whose numbers are uncertain, are shown with a selection of clear calls. Calls come from the whole dose curve; as a rule, active = well fitted inhibition curve with a large enough effect in the signal ratio, with a control signal flat (not every such curve was filed as active); inconclusive = small, poorly fitted or top-dose-only effect, or effect the other way, or a change in a side signal; inactive = no such curve, though single readings can be large or run the other way; the % refers to the signal ratio. A potency beside an inconclusive call is a rough fit, not a confirmed value. “Side channel” marks fits to a control or component signal instead of the main read-out.

biological target: Muscleblind-like protein 1 (Homo sapiens) (UniProt Q9NR56); assay: qHTS Assay for Inhibitors of MBNL1-poly(CUG) RNA binding; conditions: TR-FRET MBNL1-His/biotin-(CUG)12 binding, 665/545 ratio; activity change, negative = inhibition: at 57.5 µM (top of the series)
In short: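 TR-FRET readout: Ex 340 nm, 665/545 nm emission ratio, normalized to buffer-only (basal) and MBNL1-(CUG)12 controls. Complex of MBNL1-His with Biotin-(CUG)12, compounds 92 nM–58 uM, incubated 60 min at room temperature.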
% is set by controls: 0 for no effect and ±100 for the full control effect; potency is the fitted concentration of half-maximal effect; tags give direction and shape of the fitted curve or compound fluorescence and quenching.

Chain of UniProt Q9NR56 (Q9NR56 whole entry, looked up): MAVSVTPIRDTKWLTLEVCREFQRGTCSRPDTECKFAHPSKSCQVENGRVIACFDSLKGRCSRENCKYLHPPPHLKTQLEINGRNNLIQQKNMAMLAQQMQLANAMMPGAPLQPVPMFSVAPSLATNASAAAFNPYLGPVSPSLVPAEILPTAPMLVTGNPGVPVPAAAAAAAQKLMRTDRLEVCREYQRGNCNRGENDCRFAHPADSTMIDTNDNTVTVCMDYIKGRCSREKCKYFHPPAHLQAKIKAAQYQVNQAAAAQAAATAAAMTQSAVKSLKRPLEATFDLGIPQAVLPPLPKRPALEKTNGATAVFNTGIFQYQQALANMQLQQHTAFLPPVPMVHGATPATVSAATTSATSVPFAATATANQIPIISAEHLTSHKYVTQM

Compound	activity change, negative = inhibition	Potency
O=C(CN1CCN(S(=O)(=O)c2ccc(Br)cc2)CC1)Nc1ccc(F)cc1	inactive: 1.97%	
CC12CCC(C(=O)N(CSC(=S)N/N=C\c3ccccc3Cl)C1=O)C2(C)C (centres undefined)	inactive: 1.4%	
CC(C)OC(=O)c1cccc(C(=O)O)n1		inconclusive: 100 µM [inhibitor, single point]
Clc1ccc2oc(-c3cccnc3)nc2c1	inactive: -5.23%	
NS(=O)(=O)c1ccc(N/N=C/c2ccncc2)cc1		inconclusive: 11.2 µM [quencher, partial curve]
Cc1c(C(c2cccc([N+](=O)[O-])c2O)c2c(C)n(C)n(-c3ccccc3)c2=O)c(=O)n(-c2ccccc2)n1C		inconclusive: 22.4 µM [quencher, single point]
O=C(Cc1ccccc1)N/N=C/c1ccc(S(=O)(=O)O)o1		inconclusive: 20 µM [quencher, side channel, single point]
O=C(c1ccccc1NS(=O)(=O)c1cccc([N+](=O)[O-])c1)N1CCOCC1		inconclusive: 28.2 µM [quencher, side channel, single point]
COc1ccccc1NS(=O)(=O)c1cc([N+](=O)[O-])ccc1N/N=C/c1c(C)[nH]c2ccccc12	inactive: 23.2%	
O=[N+]([O-])c1[nH]cnc1/C=C/c1ccccc1		inconclusive: 3.16 µM [quencher, side channel, full curve]
Cc1c(NC(=O)COC(=O)c2cc(-c3ccc(-c4ccccc4)cc3)nc3ccccc23)c(=O)n(-c2ccccc2)n1C		inconclusive: 5.01 µM [fluorescent, side channel, full curve]
CC(=O)c1cccc(NC(=O)CCS(=O)(=O)c2cccc3nonc23)c1		inconclusive: 11.2 µM [quencher, partial curve]
Cc1nnc(SCc2cccc([N+](=O)[O-])c2)o1		inconclusive: 22.4 µM [quencher, side channel, single point]
COc1ccc(Cn2c(-c3ccc(OC)cc3)nc3c(c(=O)c4ccccc4n3C)c2=O)cc1		inconclusive: 0.355 µM [fluorescent, side channel, partial curve]
O=C(COc1cccc([N+](=O)[O-])c1)N/N=C/c1ccco1		inconclusive: 3.98 µM [quencher, side channel, partial curve]
Cn1c(C(=O)c2ccccc2[N+](=O)[O-])nc2ccccc21		inconclusive: 14.1 µM [quencher, partial curve]
CCCC(=O)Nc1c(-c2ccccc2)c(=O)c(C)nn1-c1ccc(Cl)cc1		inconclusive: 0.1 µM [fluorescent, side channel, full curve]
COc1ccc(C(=O)Nc2ccccc2C(=O)N/N=C/c2ccco2)cc1		inconclusive: 35.5 µM [quencher, side channel, single point]
CN(c1ccc(C(=O)N2CCOCC2)cc1[N+](=O)[O-])C1CCCCC1		inconclusive: 17.8 µM [quencher, side channel, partial curve]
O=C1OCCC1Sc1nc2ccccc2c(=O)n1Cc1ccccc1 (centres undefined)	inactive: 3.44%	

Compound	activity change, negative = inhibition	Potency
Cc1cccc(NC(=O)c2ccc(N3CCCCC3)c([N+](=O)[O-])c2)n1		inconclusive: 12.6 µM [quencher, side channel, partial curve]
CS(=O)(=O)N1CCN(C(=O)c2cc(-c3ccncc3)nc3ccc(Cl)cc23)CC1		inconclusive: 44.7 µM [quencher, side channel, single point]
Cc1ccc(O)c(CNc2cccc3cccnc23)c1	inactive: 3.08%	
COCCn1c(SCc2cnc(-c3ccccc3)s2)nnc1-c1ccncc1	inactive: -1.08%	
CC(=O)c1cccc(N=C2C(=O)Nc3ccccc32)c1		inconclusive: 15.8 µM [quencher, side channel, partial curve]
COc1cc(S(=O)(=O)Nc2cc(C)cc(C)c2)ccc1F		inconclusive: 79.4 µM [inhibitor, single point]
COc1ccccc1C(=O)NNC(=O)c1cccc([N+](=O)[O-])c1		inconclusive: 8.91 µM [quencher, side channel, partial curve]
COC(=O)c1ccc([N+](=O)[O-])c(CS(=O)(=O)c2ccc(Cl)cc2)c1		inconclusive: 14.1 µM [quencher, side channel, partial curve]
Cc1ccc(NC(=S)Nn2cnnc2)cc1	inactive: -5.24%	
CCCNc1nc(Nc2ccc(C)c(Cl)c2)c2cnn(C)c2n1		inconclusive: 35.5 µM [fluorescent, side channel, single point]
COc1cc(/C=C/c2cc[n+](C)cc2)ccc1OCC(=O)Nc1ccccc1		inconclusive: 14.1 µM [quencher, side channel, partial curve]
O=C(O)Cn1cc(/C=C2\SC(=O)N(c3ccccc3)C2=O)c2ccccc21		inconclusive: 25.1 µM [quencher, side channel, partial curve]
CC(Oc1ccc(Cl)cc1Cl)c1nc(-c2ccc(NC(=O)c3cccnc3)cc2)no1 (centres undefined)	inactive: -2.06%	
CN(CCCC(=O)NCc1ccccc1)S(=O)(=O)c1ccc([N+](=O)[O-])cc1		inconclusive: 12.6 µM [quencher, side channel, partial curve]
CCOc1ccc(CN2CCN(Cc3cccc4c3OCO4)CC2CCO)cc1 (centres undefined)	inactive: -11.3%	
COc1cc(OC)cc(C(=O)Nc2cccc3cccnc23)c1	inactive: 0.0193%	
COc1cccc(CN2CC(O)=C(c3nc(-c4ccc(Cl)cc4)cs3)C2=N)c1	inactive: 1.61%	
CN(C)CCCN1C(=O)c2cccc3c(Br)ccc(c23)C1=O		inconclusive: 4.47 µM [quencher, side channel, partial curve]
CCN(CC)c1ccc(/C=C2\NC(=O)NC2=O)cc1		inconclusive: 14.1 µM [quencher, side channel, partial curve]
O=C(NNC(=O)c1ccccc1[N+](=O)[O-])c1cnccn1		inconclusive: 17.8 µM [quencher, side channel, partial curve]

Compound	activity change, negative = inhibition	Potency
O=C(O)/C=C/c1cccc(NC(=O)Nc2ccc([N+](=O)[O-])cc2)c1		inconclusive: 28.2 µM [quencher, side channel, single point]
Cc1ccc(S(=O)(=O)N2CCN(c3ccc(C(F)(F)F)cc3[N+](=O)[O-])CC2)cc1		inconclusive: 0.1 µM [fluorescent, side channel, full curve, poor fit]
O=C(CCN1C(=O)c2ccc([N+](=O)[O-])cc2C1=O)Nc1nccs1		inconclusive: 2.82 µM [quencher, full curve]
O=C(Nc1ccc(F)c([N+](=O)[O-])c1)c1ccc2c(c1)C(=O)OC2=O		inconclusive: 8.91 µM [quencher, side channel, partial curve]
O=C(CN1C(=O)C(=O)c2ccccc21)OCN1C(=O)c2ccccc2C1=O		inconclusive: 20 µM [inhibitor, single point]
COc1cc(C(=O)NCc2ccc3c(c2)OCO3)c([N+](=O)[O-])cc1OC		inconclusive: 14.1 µM [quencher, partial curve]
O=C(N/N=C/c1ccc(-c2ccccc2[N+](=O)[O-])o1)c1cncc(Br)c1		inconclusive: 35.5 µM [activator, single point]
NC(=O)CC(NC(=O)Cc1ccc(Br)cc1)c1ccc(N2CCC(N3CCCC3)CC2)c([N+](=O)[O-])c1 (centres undefined)		inconclusive: 28.2 µM [quencher, side channel, single point]
COc1ccc([N+](=O)[O-])c(OC)c1C(=O)NC(=O)Nc1c(F)cc(F)cc1F		inconclusive: 35.5 µM [quencher, side channel, single point]
C[n+]1c(/C=C/c2ccc(O)cc2)ccc2ccccc21		inconclusive: 14.1 µM [quencher, side channel, partial curve]
CCOC(=O)C1CCN(C(=S)Nc2ccc(S(N)(=O)=O)cc2)CC1		inconclusive: 0.708 µM [quencher, side channel, full curve, poor fit]
CCCC(=O)NCc1ccc2c(c1)cc(C)n2C		inconclusive: 25.1 µM [quencher, side channel, single point]
COC(=O)C1=C(C)N(Cc2ccco2)C(=O)/C1=C\c1ccc([N+](=O)[O-])cc1		inconclusive: 8.91 µM [quencher, side channel, full curve]
CCN(C(=O)CCN1C(=O)/C(=C/c2ccccc2)SC1=S)C1CCS(=O)(=O)C1 (centres undefined)		inconclusive: 11.2 µM [quencher, side channel, partial curve]
COC(=O)c1ccc(Sc2ccccc2NS(=O)(=O)c2ccc(OC)cc2)nc1		inconclusive: 1.58 µM [quencher, side channel, partial curve]
COc1ccc(N2CCC(CNC(=S)Nc3cc(C)cc(C)c3)C2)cc1 (centres undefined)	inactive: -11.4%	
COc1ccc(OC)c(NC(=O)Cn2c(C)nc3ccccc3c2=O)c1		inconclusive: 10 µM [quencher, side channel, partial curve]
COc1ccc(N2C(=O)/C(=C\c3ccco3)N=C2SCC(N)=O)cc1Cl		inconclusive: 17.8 µM [quencher, side channel, single point]
O=C(N/N=C/c1cc(Br)cs1)c1ccccc1[N+](=O)[O-]		inconclusive: 25.1 µM [quencher, side channel, partial curve]
